Reference: PubChem BioAssay AID2546 (National Center for Advancing Translational Sciences (NCATS), 2010)
About 11,000 (3.5%) of roughly 310,000 compounds were called active. The inconclusive results got no clear call from the source; some entries with a clear call stand among them for comparison. Calls follow the shape of the dose curve; as a rule, active = well fitted inhibition curve with a large enough effect; inconclusive = small, poorly fitted or top-dose-only effect, or effect the other way; inactive = flat fitted curve, though single readings scatter. No potency is given beside an inconclusive call; the fits are too rough.

Test: VP16 counterscreen qHTS for inhibitors of ROR gamma transcriptional activity;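 also: Gal4-VP16 expression switched on by copper sulfate through the metallothionein promoter; nearly all actives have a fitted effect of over 50% in size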
Conditions: Drosophila S2 Gal4-VP16 UAS-luciferase, luminescence, 20 h; activity, negative = inhibition: at 53.6 µM (top of the series)
% is scaled to controls: 0 for no effect and ±100 for the full control effect; potency is read from the fitted curve at half-maximal effect; tags tell the direction and shape of the fitted curve.

| SMILES | activity, negative = inhibition | Potency |
| --- | --- | --- |
| CCCCc1nc2ccccc2c(=O)n1NC(=O)c1c(O)c2ccccc2n(C)c1=O | inactive: 3.4% | – |
| CCC(C)C1NC(=S)N(Cc2ccccc2)C1=O (stereo not drawn) | – | inconclusive [inhibitor, single point] |
| COc1ccc(-c2nc3cccc(C)n3c2NCC2CCCO2)cc1O (stereo not drawn) | – | inconclusive [activator, partial curve] |
| Cc1ccc(N=c2ssnc2Cl)cc1 | – | inconclusive [inhibitor, single point] |
| CCCCCCC=O | inactive: -8.83% | – |
| CCCNC1=C(N(C(C)=O)c2cccc(F)c2)C(=O)c2ccccc2C1=O | – | inconclusive [inhibitor, single point] |
| Cc1ccc(CNC(=O)CN2CCN(Cc3ccc(C)cc3)C2=O)cc1 | – | inconclusive [inhibitor, single point] |
| CCCS(=O)(=O)c1nnnn1-c1cccc(OC)c1 | – | active: 4.47 µM |
| COc1ccc(-n2cnc3ccccc32)cc1 | – | inconclusive [inhibitor, single point] |
| CC(C)Cc1c2c([nH]c(=S)c1C#N)CCCC2 | – | inconclusive [inhibitor, single point] |
| O=C(NCc1ccccc1Cl)C1CCN(C(=O)c2sccc2-n2cccc2)CC1 | inactive: 1.11% | – |
| COC(=O)c1cn(CC(=O)Nc2ccc(OC)cc2)c2ccccc12 | inactive: -1.25% | – |
| Oc1ccc(Br)cc1-c1nc2cnccn2c1NC1CCCC1 | – | inconclusive [inhibitor, single point] |
| CCOc1ccc(/C=N/NC(=S)NC2CC3CC2C2C=CCC32)cc1 (stereo not drawn) | – | active: 4.47 µM |
| Cc1ccc(Cn2ncc3c(NN)ncnc32)cc1 | – | inconclusive [inhibitor, single point] |
| COc1cc(C(=O)OCC(=O)c2cc(C)n(C)c2C)cc(NC(=O)c2ccco2)c1OC | – | inconclusive [inhibitor, full curve] |
| Cc1ccc2c(c1)-c1nc3ccccc3cc1C2=NC1CCCCC1 | – | inconclusive [activator, single point] |
| CCOC(=O)C1=NN(C(=O)COc2ccccc2)C(O)(c2ccc(Br)cc2)C1 (stereo not drawn) | – | active: 11.2 µM |
| COc1ccc(C)cc1-n1nnnc1SCC(=O)Nc1cccnc1Cl | – | inconclusive [inhibitor, single point] |
| c1ccc2c(c1)oc1c(N3CCN(Cc4ccc5c(c4)OCO5)CC3)ncnc12 | – | inconclusive [inhibitor, single point] |
| COCC(C)n1c(C)cc(C(=O)CSc2nc3ccccc3c(=O)[nH]2)c1C (stereo not drawn) | – | inconclusive [inhibitor, partial curve] |
| O=C(NCCCN1CCCC1=O)c1ccc2c(c1)NC(=O)C(N1CCOCC1)S2 (stereo not drawn) | – | inconclusive [inhibitor, single point] |
| c1ccc(Nc2ncnc3sccc23)cc1 | inactive: -11.2% | – |
| CSC(=S)N/N=C/c1c[nH]c2ccccc12 | – | active: 0.891 µM |
| COCCn1c(C)cc(C(=O)COC(=O)c2n[nH]c3ccccc23)c1C | – | inconclusive [inhibitor, single point] |
| COc1cccc([C@@H]2Oc3ccc(Br)cc3C(=O)[C@H]2OC(=O)Nc2ccc(OC(F)F)cc2)c1 | inactive: -6.2% | – |

| SMILES | activity, negative = inhibition | Potency |
| --- | --- | --- |
| COc1ccc(C(=O)Cn2c(Br)nc3c2c(=O)n(C)c(=O)n3C)cc1 | inactive: -2.45% | – |
| CCN(CC)S(=O)(=O)c1cccc(C(=O)N/N=C/c2ccc([N+](=O)[O-])o2)c1 | – | inconclusive [inhibitor, single point] |
| Cc1ccc(S(=O)(=O)/N=C2/C=C(Sc3ncn[nH]3)C(=O)c3ccccc32)c(C)c1 | – | active: 5.01 µM |
| CC(=O)N(C1=C(Cl)C(=O)c2ccccc2C1=O)c1ccc(C(=O)O)cc1 | – | inconclusive [inhibitor, single point] |
| O=C(NC(=S)N1CCCC1)c1ccc(Cl)cc1Cl | – | active: 1.41 µM |
| CCCCCCn1nc(C(=O)OCC(=O)c2c(N)n(C)c(=O)n(C)c2=O)c2ccccc2c1=O | inactive: -17.6% | – |
| Cn1cc(Br)c(C(=O)Nc2sc3c(c2C(N)=O)CCCC3)n1 | inactive: 18% | – |
| O=C(CCN1CCN(Cc2ccccc2)CC1)Nc1ccc(OCc2ccccc2)cc1 | – | inconclusive [inhibitor, single point] |
| S=C1NC[C@H](c2ccccc2)N1CCCCC1CCCCC1 | – | active: 3.16 µM |
| COC(=O)/C=C/c1ccc(OC(=O)OC)c(OC(=O)OC)c1 | – | inconclusive [activator, single point] |
| CC(=O)N1c2ccc(S(=O)(=O)N3CCCC(C(=O)NCc4ccccc4)C3)cc2CC1C (stereo not drawn) | inactive: 5.66% | – |
| O=C(COc1ccc(Br)cc1Cl)NC(=S)N1CCc2ccccc21 | – | active: 0.708 µM |
| Cc1ccc(C(=O)ONc2ccc(N=NC(=O)c3ccccc3O)cc2)cc1 | – | active: 17.8 µM |
| Nc1nonc1-n1nnc(C(=O)N/N=C/c2c(Cl)cccc2Cl)c1CN1CCOCC1 | – | inconclusive [inhibitor, partial curve] |
| CCOC(=O)CNC(=S)N(Cc1ccccc1)Cc1ccccc1F | inactive: 24.6% | – |
| CCn1c(C)c(C(C)=O)c(N2CCN(C(c3ccccc3)c3ccccc3)CC2)nc1=S | – | inconclusive [inhibitor, partial curve, poor fit] |
| COCC(=O)N1CCC2(CCCN(c3cccc(-c4ccccc4)c3)C2)CC1 | inactive: 9.3% | – |
| Cc1cccn2c(=O)c(/C=C(\C#N)C(=O)NC3CCS(=O)(=O)C3)c(N3CCC(C(N)=O)CC3)nc12 (stereo not drawn) | inactive: -9.67% | – |
| Cc1ccc[n+](CC(=O)Nc2ccc([N+](=O)[O-])cc2)c1 | – | inconclusive [inhibitor, single point] |
| O=C1NC(c2ccccc2)=C(c2ccccc2)C1=O | inactive: -0.879% | – |
| Cc1oc(-c2ccccc2F)nc1CN1CCC(C(=O)NC2CCCCCCC2)CC1 | inactive: 4.64% | – |
| O=C(c1ccc(-n2cccn2)cc1)N1CCN(c2ncccc2C(F)(F)F)CC1 | inactive: 1.33% | – |
| CN1CCN(C(=S)NC(=O)c2cccc([N+](=O)[O-])c2)CC1 | – | active: 1.26 µM |
| O=C1NC(Cc2c[nH]c3ccccc23)C(=O)N1Cc1ccccc1 (stereo not drawn) | inactive: -1.24% | – |
| Cc1sc2ncnc(NCC3CCCO3)c2c1C (stereo not drawn) | – | inconclusive [inhibitor, single point] |
| COc1cccc(-c2nn(-c3ccccc3)cc2CN(C)Cc2c(C)nc3ccccn23)c1 | – | inconclusive [inhibitor, single point] |

| SMILES | activity, negative = inhibition | Potency |
| --- | --- | --- |
| COc1ccc2nc(SCC(=O)Nc3ccccc3OC)[nH]c2c1 | inactive: 3.43% | – |
| COc1ccc(Br)cc1/C=C/C(=O)c1ccc(NC(C)=O)cc1 | – | active: 10 µM |
| NC(=S)N/N=C/c1cccc(O)c1O | – | inconclusive [inhibitor, single point] |
| CC1CCCC(C)N1/N=C/C=C/c1ccccc1[N+](=O)[O-] (stereo not drawn) | – | inconclusive [activator, single point] |
| CCOc1ccc(OCC)c(NC(=O)CSc2nnc(C3CC3)n2CC)c1 | inactive: -5.82% | – |
| Cc1c(NC2=CC(=O)CCC2)c(=O)n(-c2ccccc2)n1C | inactive: -0.689% | – |
| CC(=O)c1ccc(S(=O)(=O)N2CCC(NC(=O)Nc3cccc(F)c3)CC2)cc1 | inactive: -4.9% | – |
| Cc1cc(/C=N/NC(=O)c2c(Br)cnn2C)c(C)n1-c1cccc(Br)c1 | – | active: 7.08 µM |
| COc1ccccc1NC(=O)c1ccc(NC(=O)COC(=O)CC(NC(=O)c2ccccc2Cl)c2ccccc2)cc1 (stereo not drawn) | – | inconclusive [activator, single point] |
| O=C(N/N=C/c1cn(-c2cccs2)nc1-c1ccccc1)c1ccc(O)cc1 | – | active: 17.8 µM |
| C/C(CC(=O)Nc1ccc2c(c1)OCO2)=N\NC(=O)C(c1ccccc1)c1ccccc1 | – | inconclusive [inhibitor, single point] |
| Cc1ccc(-c2n[nH]c(=S)n2/N=C/c2cccs2)cc1 | – | active: 3.16 µM |
| Cc1cc(C)cc(N/C(N)=N/c2nc(C)cc(C)n2)c1 | inactive: -2.44% | – |
| S=C(c1ccc(Br)cc1)N1CCCC1 | inactive: 1.78% | – |
| CN(CCO)S(=O)(=O)c1ccc2c(c1)C(=NN)c1cc(S(=O)(=O)N(C)CCO)ccc1-2 | inactive: 16.5% | – |
| COc1ccc(Cn2c(SCc3ccc(C)cc3)nc3cc(OC)c(OC)cc3c2=N)cc1Cl | – | active: 1.41 µM |
| CC(C)CCSc1nc(N)c(C#N)cc1C#N | – | inconclusive [inhibitor, single point] |
| CSc1ccc(/C=N/NC(=O)c2ccc(C)c(C)c2)cc1 | – | inconclusive [inhibitor, single point] |
| O=C(CC(c1cccs1)S(=O)(=O)c1ccccc1)c1ccc(F)cc1 (stereo not drawn) | – | inconclusive [activator, single point] |
| COc1ccc2c(-c3ccccc3)cc(=S)[nH]c2c1 | – | inconclusive [inhibitor, partial curve] |
| CCc1ccc(NS(=O)(=O)c2ccc(OC)c(C)c2)cc1 | – | inconclusive [inhibitor, single point] |
| COCCN(Cc1cc2cc(C)ccc2nc1Cl)C(=O)Nc1ccccc1OC | inactive: 0.754% | – |
| C=C(C)COc1ccc(-c2n[nH]c(C)c2-c2ccccc2)c(O)c1 | – | active: 3.16 µM |
| Cc1c(C(=O)NCC(C)C)sc2nc(-c3ccc(F)cc3)cn12 | – | inconclusive [activator, full curve, poor fit] |
| O=C(Nc1nccs1)c1ccc(COc2ccccc2)o1 | – | inconclusive [activator, partial curve, poor fit] |
| O=C(CCl)Nc1cc(S(=O)(=O)N2CCCCCC2)ccc1Cl | – | inconclusive [inhibitor, single point] |
